Drawing on PMC12820563, “FoxP3 forms a head-to-head dimer in vivo and stabilizes its multimerization on adjacent microsatellites”, this text covers binding signal for 32 sequences.

This is one part of the list.

The test has as its target T1, MBP-FoxP1dN (Mus musculus, UniProt P58462 326-579).
T1 sequence: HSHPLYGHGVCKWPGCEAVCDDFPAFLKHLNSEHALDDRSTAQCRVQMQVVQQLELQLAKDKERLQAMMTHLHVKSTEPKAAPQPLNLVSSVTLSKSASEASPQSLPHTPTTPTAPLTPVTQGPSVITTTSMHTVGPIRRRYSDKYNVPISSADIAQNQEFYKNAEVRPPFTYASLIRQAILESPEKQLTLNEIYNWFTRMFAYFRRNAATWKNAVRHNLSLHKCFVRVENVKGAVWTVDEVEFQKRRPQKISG
Briefly: PD-seq (MBP pull-down with sequencing); 20 mM Tris-HCl pH 7.5, 100 mM NaCl, 1.5 mM MgCl2, 0.4 uM protein, 0.1 uM dsDNA library, 30 min, room temperature, amylose pull-down; high values mean tight binding. To be noted: protein: recombinant; tags: His6-MBP; chain copies: 2; dsDNA, one strand shown. The procedure, abridged:
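His6-MBP-tagged mouse FoxP3 or FoxP1 fragment lacking the N-terminus, expressed in E. coli, was mixed at 0.4 µM with 0.1 µM Klenow-filled double-stranded degenerate DNA library. Incubation was 30 min at room temperature in Tris pH 7.5 buffer with NaCl and MgCl2. Complexes were caught on amylose resin and washed three times; DNA was released with proteinase K, PCR-barcoded and Illumina-sequenced. Binding is reads-per-million enrichment, pull-down over input, with replicates pooled.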
“GATGATTGTTCTCCCAGCTGATGAATTTTTCTCGTCGAGTAAACAAATTTTCCTAATCTTTCTGTTCAAGCGCCATCTAC”: the binding signal is 0.979 RPM ratio (pull-down/input).

Turning to “GATGATTGTTCTCCCAGCTGATGAATTCTCCTAGTCGAGTAAACAAATTTTCCTAATCTTTCTGTTCAAGCGCCATCTAC”, the binding signal was 0.791 RPM ratio (pull-down/input).

On to “GATGATTGTTCTCCCAGCTGATGAATTTCCTCATTCGAGTAAACAAATTTTCCTAATCTTTCTGTTCAAGCGCCATCTAC”, for which the binding signal was 0.924 RPM ratio (pull-down/input).

Regarding “GATGATTGTTCTCCCAGCTGATGAATTGTCCTGCTCGAGTAAACAAATTTTCCTAATCTTTCTGTTCAAGCGCCATCTAC”, the binding signal is 0.933 RPM ratio (pull-down/input).

“GATGATTGTTCTCCCAGCTGATGAATTATGTAGTTCGAGTAAACAAATTTTCCTAATCTTTCTGTTCAAGCGCCATCTAC”: the binding signal is 1.23 RPM ratio (pull-down/input).

On to “GATGATTGTTCTCCCAGCTGATGAATTCTGTCGCTCGAGTAAACAAATTTTCCTAATCTTTCTGTTCAAGCGCCATCTAC”, for which the binding signal was 0.831 RPM ratio (pull-down/input).

On to “GATGATTGTTCTCCCAGCTGATGAATTTGTTTTCTCGAGTAAACAAATTTTCCTAATCTTTCTGTTCAAGCGCCATCTAC”, for which the binding signal is 2.32 RPM ratio (pull-down/input).

In the case of “GATGATTGTTCTCCCAGCTGATGAATTGCAGTGGTCGAGTAAACAAATTTTCCTAATCTTTCTGTTCAAGCGCCATCTAC”, the binding signal is 0.983 RPM ratio (pull-down/input).

For the sequence “GATGATTGTTCTCCCAGCTGATGAATTTTGCTTTTCGAGTAAACAAATTTTCCTAATCTTTCTGTTCAAGCGCCATCTAC”, the binding signal is 1.49 RPM ratio (pull-down/input).

For the sequence “GATGATTGTTCTCCCAGCTGATGAATTCGACGAATCGAGTAAACAAATTTTCCTAATCTTTCTGTTCAAGCGCCATCTAC”, the binding signal is 0.971 RPM ratio (pull-down/input).

Regarding “GATGATTGTTCTCCCAGCTGATGAATTCACTCTCTCGAGTAAACAAATTTTCCTAATCTTTCTGTTCAAGCGCCATCTAC”, the binding signal was 0.834 RPM ratio (pull-down/input).

As to “GATGATTGTTCTCCCAGCTGATGAATTCGTCACGTCGAGTAAACAAATTTTCCTAATCTTTCTGTTCAAGCGCCATCTAC”, the binding signal is 0.909 RPM ratio (pull-down/input).

Turning to “GATGATTGTTCTCCCAGCTGATGAATTGTGGCCCTCGAGTAAACAAATTTTCCTAATCTTTCTGTTCAAGCGCCATCTAC”, the binding signal is 0.946 RPM ratio (pull-down/input).

For the sequence “GATGATTGTTCTCCCAGCTGATGAATTGAGTCGCTCGAGTAAACAAATTTTCCTAATCTTTCTGTTCAAGCGCCATCTAC”, the binding signal was 0.82 RPM ratio (pull-down/input).

As to “GATGATTGTTCTCCCAGCTGATGAATTATAGGAATCGAGTAAACAAATTTTCCTAATCTTTCTGTTCAAGCGCCATCTAC”, the binding signal was 1.02 RPM ratio (pull-down/input).

As to “GATGATTGTTCTCCCAGCTGATGAATTACACTGCTCGAGTAAACAAATTTTCCTAATCTTTCTGTTCAAGCGCCATCTAC”, the binding signal was 1.02 RPM ratio (pull-down/input).

For the sequence “GATGATTGTTCTCCCAGCTGATGAATTATCATTGTCGAGTAAACAAATTTTCCTAATCTTTCTGTTCAAGCGCCATCTAC”, the binding signal is 1.21 RPM ratio (pull-down/input).

In the case of “GATGATTGTTCTCCCAGCTGATGAATTGGATACTTCGAGTAAACAAATTTTCCTAATCTTTCTGTTCAAGCGCCATCTAC”, the binding signal was 1 RPM ratio (pull-down/input).

On to “GATGATTGTTCTCCCAGCTGATGAATTTCATACTTCGAGTAAACAAATTTTCCTAATCTTTCTGTTCAAGCGCCATCTAC”, for which the binding signal is 0.905 RPM ratio (pull-down/input).

Consider “GATGATTGTTCTCCCAGCTGATGAATTCCTCGGCTCGAGTAAACAAATTTTCCTAATCTTTCTGTTCAAGCGCCATCTAC”, for which the binding signal was 0.788 RPM ratio (pull-down/input).

“GATGATTGTTCTCCCAGCTGATGAATTAATATGATCGAGTAAACAAATTTTCCTAATCTTTCTGTTCAAGCGCCATCTAC”: the binding signal was 1.01 RPM ratio (pull-down/input).

For the sequence “GATGATTGTTCTCCCAGCTGATGAATTTTCGCGTTCGAGTAAACAAATTTTCCTAATCTTTCTGTTCAAGCGCCATCTAC”, the binding signal was 1 RPM ratio (pull-down/input).

Consider “GATGATTGTTCTCCCAGCTGATGAATTCGCGCATTCGAGTAAACAAATTTTCCTAATCTTTCTGTTCAAGCGCCATCTAC”, for which the binding signal was 1.26 RPM ratio (pull-down/input).

Consider “GATGATTGTTCTCCCAGCTGATGAATTATGTCTGTCGAGTAAACAAATTTTCCTAATCTTTCTGTTCAAGCGCCATCTAC”, for which the binding signal is 0.913 RPM ratio (pull-down/input).

As for “GATGATTGTTCTCCCAGCTGATGAATTTTCCGCTTCGAGTAAACAAATTTTCCTAATCTTTCTGTTCAAGCGCCATCTAC”, the binding signal was 0.865 RPM ratio (pull-down/input).

“GATGATTGTTCTCCCAGCTGATGAATTTTGGGTGTCGAGTAAACAAATTTTCCTAATCTTTCTGTTCAAGCGCCATCTAC”: the binding signal is 0.855 RPM ratio (pull-down/input).

For the sequence “GATGATTGTTCTCCCAGCTGATGAATTTAAGGACTCGAGTAAACAAATTTTCCTAATCTTTCTGTTCAAGCGCCATCTAC”, the binding signal was 0.845 RPM ratio (pull-down/input).

Regarding “GATGATTGTTCTCCCAGCTGATGAATTCAAGTGTTCGAGTAAACAAATTTTCCTAATCTTTCTGTTCAAGCGCCATCTAC”, the binding signal was 0.981 RPM ratio (pull-down/input).

Regarding “GATGATTGTTCTCCCAGCTGATGAATTCTAAGAATCGAGTAAACAAATTTTCCTAATCTTTCTGTTCAAGCGCCATCTAC”, the binding signal was 0.937 RPM ratio (pull-down/input).

Take “GATGATTGTTCTCCCAGCTGATGAATTTTATTGGTCGAGTAAACAAATTTTCCTAATCTTTCTGTTCAAGCGCCATCTAC”: the binding signal was 1.74 RPM ratio (pull-down/input).

Take “GATGATTGTTCTCCCAGCTGATGAATTTGTTCTGTCGAGTAAACAAATTTTCCTAATCTTTCTGTTCAAGCGCCATCTAC”: the binding signal was 1.07 RPM ratio (pull-down/input).

For “GATGATTGTTCTCCCAGCTGATGAATTCCGCCGATCGAGTAAACAAATTTTCCTAATCTTTCTGTTCAAGCGCCATCTAC”, the binding signal is 0.721 RPM ratio (pull-down/input).
